Hit rate of the full screen: of about 310,000 compounds, about 14,000 (4.5%) showed an effect of 50% or more. The effect is printed as a negative number. This is one part of the list.
biological target: human ether-à-go-go-related gene (hERG) potassium channel (human, UniProt Q12809); test: primary screen, population patch clamp on CHO cells stably expressing hERG
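Also: peak tail current of the secondary pulse compared with the same well before compound.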

human ether-à-go-go-related gene (hERG) potassium channel, sequence (Q12809 whole entry, looked up): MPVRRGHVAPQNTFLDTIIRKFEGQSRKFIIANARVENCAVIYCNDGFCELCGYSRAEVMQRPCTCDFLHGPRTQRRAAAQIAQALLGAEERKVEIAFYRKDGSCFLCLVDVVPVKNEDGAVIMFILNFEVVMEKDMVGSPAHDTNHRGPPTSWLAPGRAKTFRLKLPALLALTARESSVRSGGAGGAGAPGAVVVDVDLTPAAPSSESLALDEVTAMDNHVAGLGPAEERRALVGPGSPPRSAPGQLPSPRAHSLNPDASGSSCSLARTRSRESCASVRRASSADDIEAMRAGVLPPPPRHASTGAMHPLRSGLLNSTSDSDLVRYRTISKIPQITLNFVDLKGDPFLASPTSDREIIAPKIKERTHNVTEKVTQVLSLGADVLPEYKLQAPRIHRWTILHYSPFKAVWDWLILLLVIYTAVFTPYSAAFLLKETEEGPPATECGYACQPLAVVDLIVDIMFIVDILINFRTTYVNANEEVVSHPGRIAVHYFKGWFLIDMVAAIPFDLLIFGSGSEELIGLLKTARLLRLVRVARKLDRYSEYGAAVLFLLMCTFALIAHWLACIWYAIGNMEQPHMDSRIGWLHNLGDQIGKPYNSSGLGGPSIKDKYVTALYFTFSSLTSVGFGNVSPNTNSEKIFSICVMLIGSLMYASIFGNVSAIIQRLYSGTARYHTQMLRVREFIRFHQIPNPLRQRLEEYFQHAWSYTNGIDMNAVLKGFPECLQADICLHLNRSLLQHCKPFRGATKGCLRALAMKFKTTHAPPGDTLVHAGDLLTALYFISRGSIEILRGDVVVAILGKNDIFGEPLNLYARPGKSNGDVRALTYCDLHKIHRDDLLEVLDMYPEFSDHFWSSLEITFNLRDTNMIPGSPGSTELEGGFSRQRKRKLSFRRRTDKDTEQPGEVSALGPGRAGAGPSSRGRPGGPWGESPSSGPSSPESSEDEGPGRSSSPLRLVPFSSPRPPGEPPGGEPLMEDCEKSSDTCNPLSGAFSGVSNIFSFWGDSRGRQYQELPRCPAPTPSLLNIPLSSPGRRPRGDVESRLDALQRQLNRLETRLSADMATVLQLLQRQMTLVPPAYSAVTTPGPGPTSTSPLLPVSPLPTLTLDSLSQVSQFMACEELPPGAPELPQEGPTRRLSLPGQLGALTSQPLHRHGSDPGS

In order of falling “hERG current change (%, negative = inhibition) at 10uM” value:
1. CN(Cc1c(C(=O)N2CCCCCCC2)nc2ccc(Cl)cn12)C1CCOC1 (centres unmarked)  35.4%
2. O=C(O)C1CCN(C(=O)CCN2C(=O)S/C(=C\c3ccccc3)C2=O)CC1  33.4%
3. S=C1NC2CCCCC2N1 (centres unmarked)  26.5%
4. CCC(Sc1nc(C)cc(=O)[nH]1)C(=O)Nc1nnc(C)s1 (centres unmarked)  18.3%
5. COC(=O)c1ccc(S(=O)(=O)NCc2ccc(S(N)(=O)=O)cc2)n1C  15%
6. COc1ccc2c(CC(=O)Nc3ccc(N4CCOCC4)cc3)coc2c1  15%
7. CCN(CC)S(=O)(=O)c1ccc(/C=C/C(=O)OCC(=O)N(C(C)C)C(C)C)cc1  13.7%
8. Nc1nc(-c2ccc(Cl)cc2)cc(C(F)(F)F)n1  13.1%
9. Cc1cccc(C)c1NC(=O)C1c2ccccc2Oc2ccccc21  10.9%
10. CCCOC(=O)NC1C(NC(=O)OCCC)N(C)C(=O)N1C (centres unmarked)  10.2%
11. COC(=O)C1=CN(CCOC23CC4CC(CC(C4)C2)C3)C=C(C(=O)OC)C1c1ccsc1  10%
12. Cc1cc(C(=O)CN2CC(C)OC(C)C2)c(C)n1-c1ccccc1 (centres unmarked)  9.82%
13. CCc1nnc(NC(=O)c2ccc(S(=O)(=O)N(CCOC)CCOC)cc2)s1  9.67%
14. CCCCC(CC)CNCC(O)c1ccccc1 (centres unmarked)  9.27%
15. COC(=O)C1=C(C)N(CCc2c[nH]c3ccc(OC)cc23)C(=O)C1  8.98%
16. CN=C(Nc1cccnc1)c1cccc(C(F)(F)F)c1  7.21%
17. Cc1cc([N+](=O)[O-])nn1CC(=O)Nc1cc(F)ccc1F  7.03%
18. Cc1ccc(S(=O)(=O)N2CCN(C(=O)N3CCOCC3)CC2)cc1C  6.89%
19. COc1ccc(OC)c(CC(=O)N2CCc3cc(OC)c(OC)cc3C2)c1  6.76%
20. COc1cccc(NC(=O)CN2C(=O)CSc3ccc(S(=O)(=O)N4CCOCC4)cc32)c1  6.36%
21. COC(=O)c1ccccc1NC1=C/C(=N\S(=O)(=O)c2cccs2)c2ccccc2C1=O  6.32%
22. CC(C)OC(=O)CC(NC(=O)OC(C)(C)C)c1ccccc1 (centres unmarked)  2.7%
23. CCc1ccc(NC(=O)Cn2c(=O)n(CCC(=O)NC3CCN(Cc4ccccc4)CC3)c(=O)c3ccccc32)cc1  1.83%
24. CCOC(=O)C1=C(C)NC(C)=C(C(=O)OCC)C1c1cn(-c2ccccc2)nc1-c1ccco1  -1.05%
25. Cc1nn(C)c(C)c1CN(C)C(=O)c1cc2n(n1)C(C(F)(F)F)CC(c1cccs1)N2 (centres unmarked)  -2.89%
26. Cc1ccc(OCCn2cnc3cc([N+](=O)[O-])ccc3c2=O)cc1  -8.19%
27. CC1CCN(C(=O)CCNS(=O)(=O)c2ccc(Cl)cc2)CC1  -8.45%
28. CCN(CC(=O)Nc1c(F)cccc1F)C(=O)c1cc(S(=O)(=O)N2CCOCC2)ccc1N1CCCC1  -9.2%
29. CN(C)CCNC(=O)c1cccn(Cc2cccc(C(F)(F)F)c2)c1=O  -9.82%
30. CC(C)c1ccc(OCC(=O)NCc2ccco2)cc1  -10.3%
31. CCOC(=O)c1cc(S(=O)(=O)NCc2ccc3c(c2)OCO3)cn1C  -11.4%
32. Cc1cccc(NC(=O)CSc2nnc([C@@H](N)Cc3c[nH]c4ccccc34)o2)c1C.Cl  -11.4%
33. CCOC(=O)[C@H]1[C@H]2COc3ccccc3[C@@H]2N2C(=O)c3cc(OC)c(OC)cc3NC(=O)[C@@]12C  -12%
34. CCOCCn1c(SCc2ccccc2)nc2c1c(=O)[nH]c(=O)n2C  -14.9%
35. CC(C)c1csc(CN2CCC(CO)(Cc3cccc(F)c3)CC2)n1  -17.3%
36. COc1ccccc1C(=O)NCCC(=O)NCCCSc1ccccc1  -17.7%
37. O=C(NCC1CCCO1)c1cc(-c2ccncc2)nc2ccc(S(=O)(=O)N3CCOCC3)cc12 (centres unmarked)  -24.5%
38. COc1cc(SC)ccc1C(=O)NCCOc1ccc(F)cc1  -26.8%
39. O=C(NCCCn1ccnc1)C(=O)NCc1ccc(Cl)cc1  -32.5%
40. COc1ccc(-c2noc(N3CCC(C(=O)N(C)c4ccccc4C)CC3)n2)cc1  -33.5%
41. COc1ccccc1NC(=O)C(C)Sc1nc2ccccc2c(=O)n1CC1CCCO1 (centres unmarked)  -37.2%
42. CCCCNC(=O)/C(=C\c1ccc([N+](=O)[O-])o1)NC(=O)c1ccccc1  -39.8%
43. CC(C)(C)C1CCC(C(=O)Nc2ccc(N3CCOCC3)cc2N2CCOCC2)CC1 (centres unmarked)  -47.5%
44. COc1ccc(NC(=O)CSc2nc3ccccc3c(=O)n2CCC(=O)N2CCCCC2)cc1  -69.2%

— paper PMC4336329 (PLoS ONE, 2015)
